# Results taken from article PMC12040169 (PLOS Biology, 2025).
# The other results are listed elsewhere or left out.
# Test system: T1, C. trachomatis L2/434/Bu expressing GFP (CTL2-GFP)
# T1 construct: L2/434/Bu GFP intracellular growth in HeLa cells
# Parameters: species or system HeLa; C. trachomatis total inclusion area by high-content imaging, normalised to DMSO
# Conditions: total inclusion area; 28.5 h, 10 µM; inhibitor
# Procedure, shortened: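 Host cell viability was gauged from Hoechst-stained nuclei counts, while chlamydial growth was taken from total inclusion area and inclusion number per well. Cells were fixed and imaged by high-content microscopy once bulk GFP and resorufin fluorescence had been measured.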
row,SMILES,% of control remaining
1,O=C(CN1CCN(c2ncccn2)CC1)N1N=CCC1c1ccccc1 (stereo not shown) [CBK270184],92.8827
2,COC(=O)CNC(=O)CNS(=O)(=O)c1ccc(C(C)=O)cc1 [CBK044117],72.0235
3,CC(=O)N1CCN(Cc2c(C(F)(F)F)[nH]c3ncc(C)cc23)CC1 [CBK284768],103.476
4,Cc1ccc(NC(=O)c2nccc3ccccc23)c(C)n1 [CBK200294],111.256
5,CC(=O)N1C2CCC1CC(O)(Cn1ccc3ccnc(Cl)c31)C2 (stereo not shown) [CBK284868],110.446
6,Cc1cc(C)nc(NC(=O)OCCc2cccnc2)c1 [CBK138234],83.4919
7,Cc1ccc2[nH]c(/C(C#N)=C\c3cc(C)n(-c4ccc(S(N)(=O)=O)cc4)c3C)nc2c1 [CBK267611],101.072
8,O=C(Nc1cccc2ncccc12)c1ccnc(N2CCOCC2)c1 [CBK287882],98.5878
9,CN1CCCCCC1c1nc(-c2c[nH]c3ccccc23)nn1CCO (stereo not shown) [CBK306988],73.9658
10,CC(c1ccc(F)c(F)c1)N(C)C(=O)Cn1ncn(C)c1=O (stereo not shown) [CBK305083],80.5161
11,Cn1c(=O)n(CC(N)=O)c(=O)c2c1nc1oc(C(C)(C)C)cn12 [CBK306081],35.0836
12,C=Cn1cc(CN2CCN(C3CCCCC3)C(=O)C2)c(C)n1 [CBK282561],131.503
13,Cn1cc(CNCc2ccc(N3CCCC3)nc2)c(-c2cccnc2)n1 [CBK306312],55.5858
14,Cc1ccc(S(=O)(=O)N(C)c2c(C)ccc(S(=O)(=O)N(C)CCO)c2C)cc1 [CBK264970],99.4272
15,CC(NC(=O)COc1ccc(Br)cc1)C(=O)O (stereo not shown) [CBK262083],85.7072
16,O=C1NCC2(CCN(C(=O)C3CCCC3)CC2)Oc2ccccc21 [CBK282920],82.3083
17,O=C1NC(=O)C(CC(=O)N2CCC3(CCN(C(=O)Cc4c[nH]c5ccccc45)C3)C2)N1 (stereo not shown) [CBK131436],103.395
18,Cc1cc(C)cc(Nc2c(-c3ccc(C(=O)O)cc3)nc3cnccn23)c1 [CBK287166],105.829
19,Cc1cccc(OCC(=O)NCC(c2cccs2)N2CCOCC2)c1 (stereo not shown) [CBK305426],98.2496
20,Cc1ccc(NC(=O)c2ccc3ccccc3n2)c(C)n1 [CBK200293],134.694
21,Cc1cc(C)c(C)c(S(=O)(=O)Nc2ccc(O)c(Sc3nc[nH]n3)c2)c1C [CBK267012],123.718
22,Cc1ccc2oc(C(=O)N(CCO)CCc3ccncc3)c(C)c2c1 [CBK281642],101.643
23,CN1CCN(CCC(=O)Nc2cccc(Cl)c2)CC1 [CBK070793C],120.643
24,CC(=O)C(C)Oc1ncn(-c2ccccc2)n1 (stereo not shown) [CBK008377],58.833
25,O=C(Cn1nc(-c2cc3c(s2)CCC3)oc1=O)N1CCCC1 [CBK284712],95.6065
26,O=C(Cc1ccccn1)NC(Cc1ccsc1)c1nccs1 (stereo not shown) [CBK282821],90.7043

row,SMILES,% of control remaining
1,O=C(NCCCn1ccnc1)c1cccs1 [CBK261740],94.7168
2,O=C(O)C1CCN(C2CC(=O)N(Cc3ccccc3)C2=O)CC1 (stereo not shown) [CBK287206],106.171
3,O=C(O)CCC(=O)N1N=C2C(=Cc3ccco3)CCCC2C1c1ccco1 (stereo not shown) [CBK296069],103.777
4,O=C(CCS(=O)(=O)c1cc(Cl)ccc1Cl)OCC(=O)c1ccccc1 [CBK261256],109.007
5,COC(=O)C1(Cc2ccccc2-c2ccncc2)CCOCC1 [CBK284709],98.4212
6,COc1cccc(C(=O)Nc2ccc(O)cc2C(=O)O)c1 [CBK268662],77.879
7,Cc1cn(CC(=O)N2CCN(c3ncccn3)CC2)c(=O)[nH]c1=O [CBK144513],108.001
8,Cc1ccc(C2=CCN(C(=O)c3cccc(S(=O)(=O)N(C)C)c3)CC2)cc1 [CBK298273],109.967
9,NC(=O)C(NCc1ccccc1)c1ccc(Cl)cc1 (stereo not shown) [CBK012748],63.0212
10,C=Cn1ncc(CN2CCC(O)(c3ccccc3C)CC2)c1C [CBK282582],94.0412
11,CC1(c2ccc(Br)cc2)NC(=O)CS1 (stereo not shown) [CBK018962],17.4498
12,O=S(=O)(c1ccc(-c2ccccc2)cc1)N1CCCN(Cc2cccc(F)c2F)CC1 [CBK063111],90.8701
13,Cn1c(COc2ccc(Cl)cc2Cl)nnc1SCC(=O)N1c2ccccc2SC2C=CC=CC21 (stereo not shown) [CBK268359],129.111
14,COc1cc(C)c(NC(=O)c2cnc(-c3ccc(F)cc3)c(-c3ccncc3)c2)cc1OC [CBK036575],88.2719
15,O=C(CCCn1cc([N+](=O)[O-])cn1)Nc1cc(C(F)(F)F)ccc1Cl [CBK293987],89.6225
16,O=C(NCc1ccc(F)cc1)c1ccc(Cn2ccnc2)cc1 [CBK297719],87.3364
17,Cc1[nH]c2ccccc2c1C(=O)CSc1nccn1Cc1ccccc1 [CBK297905],119.209
18,O=S(=O)(c1ccccc1C(F)(F)F)n1ccc2c(N3CCNCC3)nccc21 [CBK045605C],34.2963
19,Fc1ccc(CN2C3CCCC2CC(NC(=S)NC2CCCCC2)C3)cc1 (stereo not shown) [CBK121172],85.8382
20,COC(=O)c1ccc(C2N(Cc3ccccc3)CCN2Cc2ccccc2)cc1 [CBK265201],80.3732
21,Cc1c(-c2ccc(Cl)cc2Cl)nc2ccccc2c1C(=O)NCc1ccc(S(N)(=O)=O)cc1 [CBK265387],115.797
22,CS(=O)(=O)Nc1cc2ccccc2c(-c2ccsc2)n1 [CBK085748],112.13
23,N#CCCn1cc(C(=O)N2CCOCC2)c(-c2ccc(F)cc2)n1 [CBK306189],78.2929
24,COc1c(C)cccc1C(=O)N1CCCC(c2ccc(Nc3nc(C)cc(C)n3)cn2)C1 (stereo not shown) [CBK285989],93.9457
25,O=C(O)CC/C(=N\NC(=O)c1cccnc1)c1ccccc1 [CBK261305],90.155
26,Nc1cc2cc(F)ccc2nc1C1CCN(C(=O)C2CC2)CC1 [CBK284657],107.043
